# Laboratory results reported in PMC4336329 (PLoS ONE, 2015).
# In all, about 310,000 compounds went through this assay and about 14,000 (4.5%) showed an effect of 50% or more. The effect is printed as a negative number. This is one part of the list.
# Target: human ether-à-go-go-related gene (hERG) potassium channel (human, UniProt Q12809)
# Test: primary screen, population patch clamp on CHO cells stably expressing hERG
# 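Further: peak tail current of the secondary pulse compared with the same well before compound.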
# Sequence of human ether-à-go-go-related gene (hERG) potassium channel (Q12809 whole entry, looked up): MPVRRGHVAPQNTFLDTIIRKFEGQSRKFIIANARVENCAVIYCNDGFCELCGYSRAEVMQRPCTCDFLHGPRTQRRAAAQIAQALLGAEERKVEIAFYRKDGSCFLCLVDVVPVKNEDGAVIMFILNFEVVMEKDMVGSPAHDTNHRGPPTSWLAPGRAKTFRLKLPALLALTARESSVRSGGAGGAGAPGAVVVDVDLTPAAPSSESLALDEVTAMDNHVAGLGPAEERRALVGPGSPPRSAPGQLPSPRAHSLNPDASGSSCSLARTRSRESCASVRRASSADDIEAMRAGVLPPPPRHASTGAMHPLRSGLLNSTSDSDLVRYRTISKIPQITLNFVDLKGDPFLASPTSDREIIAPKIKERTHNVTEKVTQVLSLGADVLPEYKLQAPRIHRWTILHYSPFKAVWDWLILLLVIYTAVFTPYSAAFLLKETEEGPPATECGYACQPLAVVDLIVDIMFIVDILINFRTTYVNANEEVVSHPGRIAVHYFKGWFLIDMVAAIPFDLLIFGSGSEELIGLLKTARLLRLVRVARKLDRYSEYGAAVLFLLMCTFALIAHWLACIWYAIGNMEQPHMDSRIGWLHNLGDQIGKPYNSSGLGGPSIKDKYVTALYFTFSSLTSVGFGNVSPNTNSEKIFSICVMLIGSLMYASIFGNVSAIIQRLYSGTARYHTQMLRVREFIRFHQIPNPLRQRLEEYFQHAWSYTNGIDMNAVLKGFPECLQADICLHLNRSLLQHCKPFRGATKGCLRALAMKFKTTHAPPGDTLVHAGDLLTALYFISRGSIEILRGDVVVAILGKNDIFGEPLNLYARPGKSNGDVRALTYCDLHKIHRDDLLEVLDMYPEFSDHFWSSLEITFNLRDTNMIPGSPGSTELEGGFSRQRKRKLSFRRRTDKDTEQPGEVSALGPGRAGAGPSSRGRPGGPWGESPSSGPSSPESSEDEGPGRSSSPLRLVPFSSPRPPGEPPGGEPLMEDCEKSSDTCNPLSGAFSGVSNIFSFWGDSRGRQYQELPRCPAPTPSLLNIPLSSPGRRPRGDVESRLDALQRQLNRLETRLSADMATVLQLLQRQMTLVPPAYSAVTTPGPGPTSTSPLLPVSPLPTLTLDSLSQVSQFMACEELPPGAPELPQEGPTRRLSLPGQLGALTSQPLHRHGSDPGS
row,SMILES,"hERG current change (%, negative = inhibition) at 10uM [%]"
1,CCCN(CCC)CCCNC(=O)CNC(=O)c1nn(-c2ccc(OC)cc2)c(=O)c2ccccc12,-20.2
2,COc1cc(-c2nnc(SCc3cccnc3)n2C)cc(OC)c1O,-5.33
3,O=C(C(Cl)Cl)N1c2ccccc2OCC1c1ccccc1 (stereo not shown),-7.13
4,COc1ccccc1CN1CC(C(=O)NCc2ccc(N3CCCC3=O)cc2)CCC1=O (stereo not shown),26.9
5,Cc1cc(SCC2=NNC(=O)C2)c(Cl)cc1Cl,2.95
6,Cc1ccc2c(c1)CC1(CN2C)C(=O)NC(=O)N(c2cc(C)ccc2C)C1=O (stereo not shown),-0.306
7,CCOc1cc(CNn2cn[nH]c2=S)cc(Cl)c1OCc1ccccc1F,10.8
8,O=C(Nc1ccccc1C(F)(F)F)c1cc(S(=O)(=O)N2CCC3(CC2)OCCO3)ccc1F,-17.1
9,COc1ccc(C2=NCCn3nc4cc([N+](=O)[O-])ccc4c32)cc1,5.07
10,CCN(CC)CCCn1c(SCC(=O)Nc2cccc(F)c2)nnc1-c1ccoc1C,-68.2
11,C/C(=N\Nc1ncc(Cl)cc1Cl)c1ccc(OC(F)F)cc1,-50.2
12,OCC[C@H]1C[C@@H](O)[C@H](O)[C@@]2(CCc3ccccc3O2)O1,11.2
13,O=C(Nc1ccc(F)cc1)C1CC2CCC1C2 (stereo not shown),5.38
14,CCOc1ccccc1NC(=O)CCCc1nc2ccccc2c(=O)[nH]1,-4.08
15,CC(=O)c1ccc([C@@H]2C[C@]34CN(Cc5cccc(C(F)(F)F)c5)S(=O)(=O)[C@H]3C[C@H]2O4)cc1,-17.3
16,O=C(CNC(=O)c1ccccc1F)NC1CCN(Cc2ccccc2)CC1,4.81
17,COC1(OC)C=CC(=O)C=C1NC(=O)c1ccccc1OC(C)=O,1.61
18,Cc1ccc(-n2c(-c3cc(C)n(C)n3)n[nH]c2=S)cc1,24.2
19,CCCOc1ccc(C(=O)NNC(=S)NC(=O)CC)cc1,23.7
20,NC(=O)CSc1cn(Cc2ccccc2)c2ccccc12,11.3

row,SMILES,"hERG current change (%, negative = inhibition) at 10uM [%]"
1,O=C(O)c1cc(C(=O)O)cc(N2C(=O)CSC2=S)c1,15.3
2,CC1CCN(c2nc3ccccc3nc2C(C#N)C(=O)NC2CCCCC2)CC1 (stereo not shown),10.1
3,O=C(Nc1ccccc1)/C(=C\c1ccco1)NC(=O)c1ccco1,-6.57
4,C/C(=N\NC(=O)c1cc(C)[nH]n1)c1ccc(-c2ccccc2)cc1,9.64
5,CC1CCc2nc(NC(=O)CCSc3ccccc3)sc2C1 (stereo not shown),-6.36
6,N#CC(Br)Br,16.2
7,COc1ccc(S(=O)(=O)N2Cc3ccccc3CC2C(=O)N2CCOCC2)cc1OC (stereo not shown),-18.7
8,Cc1ccc(NC(=O)c2cnccn2)cc1,15.8
9,COCCCn1c(=O)c2sccc2n(Cc2cccc(F)c2)c1=O,4.54
10,Clc1cccc(NCc2ccccc2)n1,-27.9
11,COc1cc(/C=C/C(=O)Nc2ccncc2)cc(OC)c1OC,4.33
12,CCCCCN(CCCCC)C(=O)C(CCC(=O)[O-])NC(=O)c1ccc(Cl)c(Cl)c1.[Na+] (stereo not shown),2.18
13,COc1ccc(NC(=O)Nc2ccc(Br)c(C)c2)cc1,23.5
14,CC(OC(=O)Cc1n[nH]c(=O)c2ccccc12)C(=O)Nc1ccc(F)cc1 (stereo not shown),-13.9
15,COc1ccc(C(=O)NCCSc2ccccc2)cc1,-7.47
16,CCN(CC)S(=O)(=O)c1cccc(NC(=O)COC(=O)c2ccc(Br)o2)c1,-18.6
17,CC1CCN(S(=O)(=O)c2ccc(S(=O)(=O)NCc3ccco3)cc2)CC1,2.5
18,CC(=O)Nc1ccc(S(=O)(=O)N(C)CC(=O)OC(C)C(=O)NC2CCCC2)cc1 (stereo not shown),10.6
19,CC(C)N(C=O)C1(C(=O)NC2CCCCC2)CCCCC1,-1.44
20,Cc1ccc(-c2nc3ccccc3c(=O)n2-c2ccc(O)cc2)cc1,-3.92

row,SMILES,"hERG current change (%, negative = inhibition) at 10uM [%]"
1,COc1cccc(Cn2c(OCC3CCCO3)nc3c2c(=O)n(C)c(=O)n3C)c1 (stereo not shown),-14.2
2,CN(C)CCCNc1cc(-c2ccccc2)nc2cc(-c3cccc(F)c3)nn12,-15.9
3,Cc1ccccc1CNC(=O)c1ccc2nc(N3CCOCC3)sc2c1,-8.47
4,c1ccc(-c2nc(NCc3ccco3)c3ccccc3n2)nc1,-62.9
5,CCOC(=O)C(C(C)C)C(N)Cc1ccc(F)cc1 (stereo not shown),-2.7
6,COc1ccc(CNC(=O)C23CN(Cc4ccccc4)CC2C(c2ccc([N+](=O)[O-])cc2)=NO3)cc1 (stereo not shown),-40.5
7,Cl.O=C(NCC(c1ccc(F)cc1)N1CCOCC1)c1ccc(Br)o1 (stereo not shown),3.56
8,Cc1csc(=N)n1-c1ccc(Cl)cc1,-3.86
9,CN(CC(=O)Nc1ccc(F)cc1)C(=O)COC(=O)c1ccc(-c2ccccc2)cc1,7.52
10,Nc1nc(Nc2cccc(F)c2)nc(NCCO)c1[N+](=O)[O-],-1.51
11,CCC(OC(=O)c1ccco1)C(=O)NCc1ccco1 (stereo not shown),9.6
12,O=C(CCSc1ccc(Cl)cc1)c1cccs1,-2.57
13,O=C(Nc1ccc(S(=O)(=O)N2CCc3ccccc3C2)cc1)C1CCCO1 (stereo not shown),-3.22
14,COC(=O)c1cccc(N(CC(=O)NCC2CCCO2)C(=O)CCC(=O)Nc2cc(C)on2)c1 (stereo not shown),23.6
15,CCn1c(SCC(O)c2ccccc2)nnc1-c1ccccc1 (stereo not shown),-15.2
16,N#Cc1cc(C(=O)c2ccccc2O)cn(-c2nccs2)c1=O,35.8
17,CCn1c(C)nc2cc(C(=O)NNC(=S)Nc3ccc(F)cc3)ccc21,15.9
18,COc1ccc(/C=N/NC(=O)CN2CCCCCCC2)c(C)c1C,-43.3
